From publication PMC6919601, “Identification of Plasmodium dipeptidyl aminopeptidase allosteric inhibitors by high throughput screening” (PLoS ONE, 2019) come the findings set out here.

The campaign covered roughly 110,000 compounds. About 230 (0.21%) showed an effect of 50% or more. The list shows a part of the results.
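Note: 30 min substrate incubation versus DMSO and 10 µM JCP410 controls.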

The assay deals with DPAP1 (Plasmodium falciparum, UniProt Q8IIJ9). In words: primary screen, percent inhibition; read by cleavage of a fluorogenic dipeptide substrate; higher = more effect of the substance. Also on record: species or system P. falciparum D10 trophozoite lysates; single well.
DPAP1, sequence (Q8IIJ9 whole entry, looked up): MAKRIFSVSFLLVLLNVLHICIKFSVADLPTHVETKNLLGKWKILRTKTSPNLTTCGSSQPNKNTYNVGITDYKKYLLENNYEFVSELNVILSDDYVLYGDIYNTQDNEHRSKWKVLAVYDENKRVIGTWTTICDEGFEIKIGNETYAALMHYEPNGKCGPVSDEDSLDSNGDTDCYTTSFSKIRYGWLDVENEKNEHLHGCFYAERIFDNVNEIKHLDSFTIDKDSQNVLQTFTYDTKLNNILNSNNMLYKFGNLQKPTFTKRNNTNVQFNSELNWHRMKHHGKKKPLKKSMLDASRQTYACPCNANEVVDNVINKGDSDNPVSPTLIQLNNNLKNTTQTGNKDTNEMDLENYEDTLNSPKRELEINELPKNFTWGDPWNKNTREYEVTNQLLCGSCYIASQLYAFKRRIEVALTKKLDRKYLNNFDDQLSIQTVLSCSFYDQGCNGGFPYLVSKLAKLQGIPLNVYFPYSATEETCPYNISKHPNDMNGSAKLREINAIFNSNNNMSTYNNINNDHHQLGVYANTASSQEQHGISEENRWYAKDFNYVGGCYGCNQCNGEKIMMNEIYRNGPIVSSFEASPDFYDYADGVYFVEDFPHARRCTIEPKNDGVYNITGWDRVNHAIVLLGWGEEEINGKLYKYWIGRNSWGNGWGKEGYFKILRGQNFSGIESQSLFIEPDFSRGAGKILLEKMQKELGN
On to `CN(C)c1ccc(CN(CCO)CCO)cc1`, for which the “% Inhibition @ 10 uM” value is given as -2.34%.
In the case of `COc1ccc(-c2nc(-c3c(C)[nH]c4ccccc34)cs2)cc1OC` it was 6.59%; in that of `Cc1oc2ccc(O)c(CN3CCCCC3C)c2c1C(=O)OCC(C)C` (stereo not shown), -8.69%.
With `O=C(CSc1nc2nncc-2c(O)n1-c1cccc2ccccc12)NCc1ccccc1Cl` the figure was 3.04%; with `CC1(C)CC(C(CCN)Cc2ccccc2)CCO1` (stereo not shown), 2.62%; with `COc1ccc(C(=O)Nc2cccc(OC)c2)cc1`, 1.91%.
With `C/C(=C\c1ccccc1)CN(CCCN(C)C)CCCN(C)C` the figure was -7.56%.
`Cc1ccc(CNC(=O)C2Sc3nnc(-c4ccccc4)n3NC2c2ccccc2)cc1` (stereo not shown): the “% Inhibition @ 10 uM” value is on record as 3.35%.
With `CCC(C)NC(=O)c1cccc2c1C(=O)N(C1CCCCC1)C2` (stereo not shown), the “% Inhibition @ 10 uM” value is 4.01%.
With `COC(=O)C1=C(C)N(C2CCCCC2)C(=O)/C1=C\c1cccc(Cl)c1` the figure was 0.0538%; with `O=C(Nc1ncc(Cc2ccccc2)s1)c1ccc2c(c1)CC(c1ccccc1)OC2=O` (stereo not shown), -4.98%; with `Cc1cc(O)n2nc(NC(=O)Cc3ccccc3)nc2n1`, -3.31%.
`CCC(=O)N1c2ccccc2N=C2CC(C)(C)CC(O)=C2C1c1c[nH]c2ccccc12` (stereo not shown): the “% Inhibition @ 10 uM” value is 5.9%.
Take `Cc1[nH]c2ccc(C(=O)N3CCN(c4ccccn4)CC3)cc2c1C`: the “% Inhibition @ 10 uM” value is listed as -3.39%.
Regarding `Cc1c(C(N)=O)nnn1-c1cccc(Cl)c1`, the “% Inhibition @ 10 uM” value worked out at 2.32%.
As to `CC(C)C[C@H](NC(=O)c1ccc(-c2cnc(N=C(N)N)s2)cc1)C(=O)N[C@@H](Cc1ccc(O)cc1)C(=O)O`, the “% Inhibition @ 10 uM” value worked out at 18.1%.
Regarding `O=C1NC(=O)N(c2ccccc2)C(=O)/C1=C/c1ccco1`, the “% Inhibition @ 10 uM” value amounted to 0.266%.
In the case of `Cc1ccc(S(=O)(=O)N2CCN(C(=O)N3CCCC3)CC2)cc1` it was 3.49%.
As for `CCC(Oc1ccccc1)C(=O)Nc1ccc(S(=O)(=O)Nc2cnc3ccccc3n2)cc1` (stereo not shown), the “% Inhibition @ 10 uM” value is recorded as -10.2%.
As to `O=C(Nc1ccccc1Br)c1cc2ccccc2oc1=O`, the “% Inhibition @ 10 uM” value is reported as 1.8%.
As to `O=C(Nc1ccc(Br)cc1)c1ccccc1Cl`, the “% Inhibition @ 10 uM” value is -3.27%.
With `CCOc1ccc(C(=O)N(Cc2nc(-c3ccccc3)no2)C(C)C)cc1` the figure was -7.89%.
In the case of `O=S(=O)(NCc1ccco1)c1ccc(-n2cccn2)cc1` it was -1.26%; in that of `CN(C)CC1CSCCC1(O)c1ccccc1` (stereo not shown), 85.1%.
In the case of `CCNC(=O)OCC(CC)NC(=O)OCC(C)C` (stereo not shown) it was 3.87%.
In the case of `Cc1ccc(CCNC(=O)C2CCC(CNS(=O)(=O)c3cccc4nsnc34)CC2)cc1` (stereo not shown), the “% Inhibition @ 10 uM” value is -0.465%.
With `C[C@@H](C[C@H](NC(=O)c1ccc(-c2ccccc2Cl)nc1)C(=O)NCC#N)c1ccccc1` the figure was 11.1%; with `CC1CCCC(NC(=O)c2ccc(CNS(=O)(=O)c3ccccc3)cc2)C1C` (stereo not shown), 0.208%; with `CCCCN(CCCC)CCNC(=O)C1CCN(C(=O)c2cc3sccc3n2C)CC1`, 3.4%.
Take `COc1cc(Br)c(C2CC(=O)NC3=C2C(=O)CC(C)(C)C3)cc1OC` (stereo not shown): the “% Inhibition @ 10 uM” value is given as -7.27%.
With `O=C(NC1(C(F)(F)F)C(=O)Nc2c1c(=O)[nH]c(=O)n2-c1ccccc1)c1ccc(Cl)cc1` (stereo not shown) the figure was -3.34%; with `COc1cccc(-c2nc(CS(=O)(=O)CC(=O)NCC(C)c3ccccc3)c(C)o2)c1` (stereo not shown), -1.89%.
Regarding `CC(C)NC(=O)CSc1cn(CC(=O)N2CCCCC2)c2ccccc12`, the “% Inhibition @ 10 uM” value was 1.12%.
As for `O=C(NCCN1CCCCCC1)C1CCCN1S(=O)(=O)c1cccc2nsnc12` (stereo not shown), the “% Inhibition @ 10 uM” value is on record as -0.465%.
`Cc1cc(C)c(C)c(C2C(C#N)=C(N)SC(N)=C2C#N)c1C`: the “% Inhibition @ 10 uM” value was 4.22%.
For `COc1ccc(C2C(C(=O)N3CCCCCC3)c3cc(OC)c(OC)cc3C(=O)N2C)cc1OC` (stereo not shown), the “% Inhibition @ 10 uM” value is recorded as -3.78%.
With `Cc1noc(/C=C/N(C)C)c1S(=O)(=O)N1CCC(C)CC1`, the “% Inhibition @ 10 uM” value is 6.11%.
With `Cc1c(C(=O)N2CCOCC2)oc2c1-c1nn(CC(=O)NC3CCCC(C)C3C)cc1CC2` (stereo not shown) the figure was 1.17%; with `COCCN1C(=O)c2[nH]nc(-c3cc(C)ccc3O)c2C1c1ccc(F)cc1` (stereo not shown), 3.81%.
With `CCOc1ccc(CCNC(=O)c2ccc(CS(=O)(=O)Cc3ccc(F)cc3)o2)cc1OCC` the figure was -2.72%; with `Cc1ccc(CNC(=O)CSc2nc3ccsc3c(=O)n2C2CC2)cc1`, -1.85%; with `COc1ccc(-c2cc(-c3ccc(C)cc3)[nH]n2)c(O)c1`, 0.528%.
In the case of `CCCCN1CN(CCc2ccccc2)CC2=C1CC(C)(C)CC2=O` it was -1.52%; in that of `COc1ccccc1S(=O)(=O)Cc1ccc(C(=O)NCCCN2CCCC2=O)o1`, -4.96%.
On to `COC(=O)c1ccc(NC(=O)C2CC3CCC2C3)cc1` (stereo not shown), for which the “% Inhibition @ 10 uM” value is listed as -4.15%.
In the case of `CCCCN(CC)C(=O)c1cnc2ccc(S(=O)(=O)N(CC)CC)cc2c1O` it was 1.16%; in that of `CCOC(=O)C(=Cc1ccc(-c2ccc(OC)cc2)o1)C(=O)OCC`, 1.67%.
For the compound `N#Cc1ccc(CSc2nc3ncccc3c(=O)n2Cc2ccccc2)cc1`, the “% Inhibition @ 10 uM” value is listed as -3.44%.
With `CCCCN(CCCC)C(=O)CSc1nnc(-c2ccc(C)cc2)o1` the figure was 3.34%.
Turning to `CCOC(=O)c1c(-c2ccc(Cl)cc2)nn2c1NCN(Cc1ccccc1)C2`, the “% Inhibition @ 10 uM” value was -2.88%.
`CC(=O)c1c(O)cc(C)n(Cc2ccccc2)c1=O`: the “% Inhibition @ 10 uM” value worked out at 1.74%.
On to `CCC(Sc1nc2nnc(C)c-2c(N)n1-c1ccc(OC)cc1)C(=O)N1CCC(C)CC1` (stereo not shown), for which the “% Inhibition @ 10 uM” value was -7.66%.
On to `COc1ccc(/C=C2\S/C(=N/c3ccc(C(=O)O)cc3)N(C)C2=O)cc1C`, for which the “% Inhibition @ 10 uM” value is on record as 0.812%.
In the case of `COc1ccccc1CCNCc1c(C(=O)O)n(Cc2ccccc2F)c2cc(C)ccc12` it was -8.25%; in that of `CCOc1ccc(S(=O)(=O)N2CCN=C2Cc2ccccc2)cc1C`, -0.0678%; in that of `CS(=O)(=O)C1=NN2C(=N)/C(=C\c3ccc(OCc4ccccc4)c(Cl)c3)C(=O)N=C2S1`, 3.53%.
In the case of `Cn1c(COc2cccc3cccnc23)nnc1SCC(N)=O` it was 5.32%; in that of `COC(=O)C1=C(C)/C(=C(\O)OC)C(C)=NC1c1c(O)ccc2ccccc12` (stereo not shown), 7.93%; in that of `CCCCNC(=O)CCc1nc(-c2ccc(Cl)cc2)no1`, 2.02%.
In the case of `CC(C)(C)c1cc(C(=O)NCCCN2CCOCC2)cc(C(C)(C)C)c1` it was 3.9%; in that of `CN1CCn2c1nc(N1CCOCC1)nc2=O`, 1.25%.
As for `CCC(C)Nc1nc(NC)nc(NC(C)CC)n1` (stereo not shown), the “% Inhibition @ 10 uM” value was 2.62%.
In the case of `CCN1CCN(Cc2cc(OC)c(O)c(OC)c2)CC1` it was -2.56%.
With `CC1(C)Nc2ccccc2N(Cc2ccccc2)C1=O` the figure was -0.865%; with `C=C1c2cc(C)ccc2NC(=O)N1c1ccccc1`, -7.31%.
Turning to `CC1CC(C)CN(C(=O)Cn2ncc3c4ccccc4n(Cc4ccccc4F)c3c2=O)C1` (stereo not shown), the “% Inhibition @ 10 uM” value was -9.07%.
As to `CCOC(=O)c1ccc(-n2c(CCC(=O)O)ccc2-c2ccc(F)cc2)cc1`, the “% Inhibition @ 10 uM” value was -2.14%.
In the case of `CN1CCN(C(=O)c2cc(-c3ccco3)on2)CC1` it was 0.0221%; in that of `COc1cc(NC(=O)C2CCN(S(=O)(=O)c3ccc4c(c3)nc(C)n4C3CCCC3)CC2)ncn1`, -0.0309%; in that of `Cc1cccc(-n2nnnc2S)c1`, 30%.
With `CC1CCC(C(C)C)C(=O)/C1=C\c1ccc(N)cc1` (stereo not shown) the figure was 3.82%; with `CC1=CC2=NC(=O)/C(=C\c3c[nH]c4ccccc34)C(=N)N2O1`, -1.43%; with `CN(C)c1ccc(C2C(C#N)=C(N)N(c3ccc(Br)cn3)C3=C2C(=O)CC(C)(C)C3)cc1` (stereo not shown), 0.343%.
As for `COc1ccc(C(=O)c2oc3ccccc3c2NC(=O)Cc2ccccc2)cc1`, the “% Inhibition @ 10 uM” value was -1.11%.
`O=C(Nc1ccccc1C(F)(F)F)c1ccc(OC(F)F)cc1`: the “% Inhibition @ 10 uM” value is given as -2.85%.
For the compound `CC1CCCCN1S(=O)(=O)c1cccc2nonc12` (stereo not shown), the “% Inhibition @ 10 uM” value was 1.04%.
In the case of `CCOC(=O)C1=C(CSc2nc(N)cc(O)n2)NC(=O)NC1c1ccc2c(c1)OCO2` (stereo not shown) it was 2.99%.
In the case of `Cc1ccc(NC(=O)CN(c2ccc(C(C)C)cc2)S(C)(=O)=O)cc1C` it was -2.44%.
In the case of `O=S(=O)(N1CCOCC1)N1CCCN(S(=O)(=O)N2CCOCC2)CC1` it was 1.51%.
Consider `Cc1ccc(S(=O)(=O)n2nc(-c3ccccc3)nc2N)cc1`, for which the “% Inhibition @ 10 uM” value is listed as -8.41%.
For `COc1cc(C2/C(=C(\O)OC(C)C)C(C)=Nc3ncnn32)cc(OC)c1OC` (stereo not shown), the “% Inhibition @ 10 uM” value is recorded as 3.87%.
With `COc1cccc(C2CC(c3cccc(OC)c3OC)n3ncnc3N2)c1` (stereo not shown) the figure was 0.0842%.
Take `CCN1CCN(c2ccc(NC(=O)c3ccc(C#N)cc3F)cc2)CC1`: the “% Inhibition @ 10 uM” value came out at 5.99%.
Consider `CCOc1ccc(-n2c(C)nc3cc(C(=O)NCCOC)ccc32)cc1`, for which the “% Inhibition @ 10 uM” value is on record as -3.93%.
As to `Cc1cc(C(=O)NCCN(CC(C)C)CC(C)C)n(-c2ccccc2)n1`, the “% Inhibition @ 10 uM” value was -3.7%.
On to `O=C(O)COc1ccc(/C=C2\SC(Nc3cccc(C(F)(F)F)c3)=NC2=O)cc1`, for which the “% Inhibition @ 10 uM” value was determined as 6.98%.
In the case of `COc1ccc(Br)cc1CN1CCN(c2ccccc2F)CC1` it was -5.41%; in that of `Cc1ccnc(NC(=O)CCc2nnc3ccc(N4CCN(C)CC4)nn23)c1`, -4.66%.
With `O=S(=O)(Nc1ccc(NS(=O)(=O)c2cccs2)cc1)c1cccs1` the figure was -1.64%; with `Cn1nc(C(=O)NCCOC23CC4CC(C)(CC(C)(C4)C2)C3)c2c1-c1ccccc1OC2`, 3.3%.
In the case of `C/C(=N\O)c1ccc(C2CCCCC2)cc1`, the “% Inhibition @ 10 uM” value is -0.128%.
Consider `Cc1ccc(CC2CC(=O)N(c3ccncc3)C2=O)cc1` (stereo not shown), for which the “% Inhibition @ 10 uM” value is 3.73%.
With `Oc1c2cc(F)ccc2nc2ncccc12` the figure was 1.74%.
`O=C(NCc1ccc2c(c1)OCO2)C1CCCN(c2nc3ccccc3n3cccc23)C1` (stereo not shown): the “% Inhibition @ 10 uM” value came to 2.07%.
In the case of `COc1ccc(-c2cc(C(F)(F)F)nc(S(=O)(=O)CCC(=O)Nc3cc(C)on3)n2)cc1` it was 44.2%.
On to `CCCCOC(=O)C1=C(C)NC(=O)NC1c1cc(Cl)cc(Cl)c1OC` (stereo not shown), for which the “% Inhibition @ 10 uM” value is on record as -2.87%.
With `COc1ccc(NC(=O)CN(C)S(=O)(=O)c2ccc(Cl)cc2)c(OC)c1` the figure was -3.45%.
